Data from patent publication US9873709B2 (priority 2013, dated 2018).

Each molecule was assayed against isolated recombinant JAK1 kinase domain (Homo sapiens (Human), UniProt P23458). Conditions: read-out: JAK1 Ki; isolated recombinant JAK1 kinase domain, 25 μM ATP.

Ki | SMILES
2.89 nM | CCOC(=O)N1CC=C(c2cccn3nc(Nc4ccc(C(=O)N5CC[C@H](N(C)C)C5)cc4)nc23)CC1 [Example 2-420, ethyl 4-[2-[4-[(3S)-3-(dimethylamino)pyrrolidine-1-carbonyl]anilino]-[1,2,4]triazolo[1,5-a]pyridin-8-yl]-3,6-dihydro-2H-pyridine-1-carboxylate]
1.31 nM | CCOC(=O)N1CC=C(c2cccn3nc(Nc4ccc(C(=O)N5CC(C(=O)N6CCN(C)CC6)C5)cc4)nc23)CC1 [Example 2-421, ethyl 4-[2-[4-[3-(4-methylpiperazine-1-carbonyl)azetidine-1-carbonyl]anilino]-[1,2,4]triazolo[1,5-a]pyridin-8-yl]-3,6-dihydro-2H-pyridine-1-carboxylate]
1.8 nM | CCOC(=O)N1CC=C(c2cccn3nc(Nc4ccc(C(=O)NCCc5cccnc5)cc4)nc23)CC1 [Example 2-422, ethyl 4-[2-[4-[2-(3-pyridyl)ethylcarbamoyl]anilino]-[1,2,4]triazolo[1,5-a]pyridin-8-yl]-3,6-dihydro-2H-pyridine-1-carboxylate]
1.9 nM | CCOC(=O)N1CC=C(c2cccn3nc(Nc4ccc(C(=O)NCCc5ccccn5)cc4)nc23)CC1 [Example 2-423, ethyl 4-[2-[4-[2-(2-pyridyl)ethylcarbamoyl]anilino]-[1,2,4]triazolo[1,5-a]pyridin-8-yl]-3,6-dihydro-2H-pyridine-1-carboxylate]
2.25 nM | CCOC(=O)N1CC=C(c2cccn3nc(Nc4ccc(C(=O)N5CCC(Cc6ccncc6)C5)cc4)nc23)CC1 (stereo not drawn) [Example 2-424, ethyl 4-[2-[4-[3-(4-pyridylmethyl)pyrrolidine-1-carbonyl]anilino]-[1,2,4]triazolo[1,5-a]pyridin-8-yl]-3,6-dihydro-2H-pyridine-1-carboxylate]
0.85 nM | CCOC(=O)N1CC=C(c2cccn3nc(Nc4ccc(C(=O)NCC5CCNCC5)cc4)nc23)CC1 [Example 2-425, ethyl 4-[2-[4-(4-piperidylmethylcarbamoyl)anilino]-[1,2,4]triazolo[1,5-a]pyridin-8-yl]-3,6-dihydro-2H-pyridine-1-carboxylate]
1.89 nM | CCOC(=O)N1CC=C(c2cccn3nc(Nc4ccc(C(=O)N5CCC(Cc6cccnc6)C5)cc4)nc23)CC1 (stereo not drawn) [Example 2-426, ethyl 4-[2-[4-[3-(3-pyridylmethyl)pyrrolidine-1-carbonyl]anilino]-[1,2,4]triazolo[1,5-a]pyridin-8-yl]-3,6-dihydro-2H-pyridine-1-carboxylate]
1.68 nM | CCOC(=O)N1CC=C(c2cccn3nc(Nc4ccc(C(=O)NCCC5CCCCN5)cc4)nc23)CC1 (stereo not drawn) [Example 2-428, ethyl 4-[2-[4-[2-(2-piperidyl)ethylcarbamoyl]anilino]-[1,2,4]triazolo[1,5-a]pyridin-8-yl]-3,6-dihydro-2H-pyridine-1-carboxylate]
1.26 nM | CCOC(=O)N1CC=C(c2cccn3nc(Nc4ccc(C(=O)N5CCCN(c6ccncc6)CC5)cc4)nc23)CC1 [Example 2-429, ethyl 4-[2-[4-[4-(4-pyridyl)-1,4-diazepane-1-carbonyl]anilino]-[1,2,4]triazolo[1,5-a]pyridin-8-yl]-3,6-dihydro-2H-pyridine-1-carboxylate]
4.79 nM | CCOC(=O)N1CC=C(c2cccn3nc(Nc4ccc(C(=O)N5CCN6CCCCC6C5)cc4)nc23)CC1 (stereo not drawn) [Example 2-430, ethyl 4-[2-[4-(1,3,4,6,7,8,9,9a-octahydropyrido[1,2-a]pyrazine-2-carbonyl)anilino]-[1,2,4]triazolo[1,5-a]pyridin-8-yl]-3,6-dihydro-2H-pyridine-1-carboxylate]
6.79 nM | CCOC(=O)N1CC=C(c2cccn3nc(Nc4ccc(C(=O)N5CCN(C)C(C(=O)N(C)C)C5)cc4)nc23)CC1 (stereo not drawn) [Example 2-431, ethyl 4-[2-[4-[3-(dimethylcarbamoyl)-4-methyl-piperazine-1-carbonyl]anilino]-[1,2,4]triazolo[1,5-a]pyridin-8-yl]-3,6-dihydro-2H-pyridine-1-carboxylate]
1.64 nM | CCOC(=O)N1CC=C(c2cccn3nc(Nc4ccc(C(=O)N5CC6(CN(C(C)=O)C6)C5)cc4)nc23)CC1 [Example 2-432, ethyl 4-[2-[4-(6-acetyl-2,6-diazaspiro[3.3]heptane-2-carbonyl)anilino]-[1,2,4]triazolo[1,5-a]pyridin-8-yl]-3,6-dihydro-2H-pyridine-1-carboxylate]
1.21 nM | CCOC(=O)N1CC=C(c2cccn3nc(Nc4ccc(C(=O)NC5CCN(C)C5)cc4)nc23)CC1 (stereo not drawn) [Example 2-433, ethyl 4-[2-[4-[(1-methylpyrrolidin-3-yl)carbamoyl]anilino]-[1,2,4]triazolo[1,5-a]pyridin-8-yl]-3,6-dihydro-2H-pyridine-1-carboxylate]
1.55 nM | CCOC(=O)N1CC=C(c2cccn3nc(Nc4ccc(C(=O)N[C@H]5[C@@H]6CNC[C@@H]65)cc4)nc23)CC1 [Example 2-434, ethyl 4-[2-[4-[[(1S,5R)-3-azabicyclo[3.10]hexan-6-yl]carbamoyl]anilino]-[1,2,4]triazolo[1,5-a]pyridin-8-yl]-3,6-dihydro-2H-pyridine-1-carboxylate]
2.33 nM | CCOC(=O)N1CC=C(c2cccn3nc(Nc4ccc(C(=O)N5C[C@H]6CNC[C@H]6C5)cc4)nc23)CC1 [Example 2-435, ethyl 4-[2-[4-[(3aR,6aS)-2,3,3a,4,6,6a-hexahydro-1H-pyrrolo[3,4-c]pyrrole-5-carbonyl]anilino]-[1,2,4]triazolo[1,5-a]pyridin-8-yl]-3,6-dihydro-2H-pyridine-1-carboxylate]
2.99 nM | CCOC(=O)N1CC=C(c2cccn3nc(Nc4ccc(C(=O)N5CCCC56CCCNC6)cc4)nc23)CC1 (stereo not drawn) [Example 2-436, ethyl 4-[2-[4-(1,9-diazaspiro[4.5]decane-1-carbonyl)anilino]-[1,2,4]triazolo[1,5-a]pyridin-8-yl]-3,6-dihydro-2H-pyridine-1-carboxylate]
1.79 nM | CCOC(=O)N1CC=C(c2cccn3nc(Nc4ccc(C(=O)N5CC6(CCCCN6)C5)cc4)nc23)CC1 [Example 2-437, ethyl 4-[2-[4-(2,5-diazaspiro[3.5]nonane-2-carbonyl)anilino]-[1,2,4]triazolo[1,5-a]pyridin-8-yl]-3,6-dihydro-2H-pyridine-1-carboxylate]
4.03 nM | CCOC(=O)N1CC=C(c2cccn3nc(Nc4ccc(C(=O)N(C)C5CCCNC5)cc4)nc23)CC1 (stereo not drawn) [Example 2-438, ethyl 4-[2-[4-[methyl(3-piperidyl)carbamoyl]anilino]-[1,2,4]triazolo[1,5-a]pyridin-8-yl]-3,6-dihydro-2H-pyridine-1-carboxylate]
2.89 nM | CCOC(=O)N1CC=C(c2cccn3nc(Nc4ccc(C(=O)N5CCCC6(CCNC6)C5)cc4)nc23)CC1 (stereo not drawn) [Example 2-439, ethyl 4-[2-[4-(2,7-diazaspiro[4.5]decane-7-carbonyl)anilino]-[1,2,4]triazolo[1,5-a]pyridin-8-yl]-3,6-dihydro-2H-pyridine-1-carboxylate]
0.47 nM | O=C(CCC(F)(F)F)N1CC=C(c2cccn3nc(Nc4ccc(C(=O)N5CCCC56CCNC6)cc4)nc23)CC1 (stereo not drawn) [Example 2-440, 1-[4-[2-[4-(1,7-diazaspiro[4.4]nonane-1-carbonyl)anilino]-[1,2,4]triazolo[1,5-a]pyridin-8-yl]-3,6-dihydro-2H-pyridin-1-yl]-4,4,4-trifluoro-butan-1-one]
0.53 nM | CN(CCN)C(=O)c1ccc(Nc2nc3c(C4=CCN(C(=O)CCC(F)(F)F)CC4)cccn3n2)cc1 [Example 2-441, N-(2-aminoethyl)-N-methyl-4-[[8-[1-(4,4,4-trifluorobutanoyl)-3,6-dihydro-2H-pyridin-4-yl]-[1,2,4]triazolo[1,5-a]pyridin-2-yl]amino]benzamide]
1.2 nM | O=C(CCC(F)(F)F)N1CC=C(c2cccn3nc(Nc4ccc(C(=O)N5CCCC6(CCCNC6)C5)cc4)nc23)CC1 (stereo not drawn) [Example 2-443, 1-[4-[2-[4-(2,8-diazaspiro[5.5]undecane-2-carbonyl)anilino]-[1,2,4]triazolo[1,5-a]pyridin-8-yl]-3,6-dihydro-2H-pyridin-1-yl]-4,4,4-trifluoro-butan-1-one]
1.27 nM | O=C(NC1CCNCC1)c1ccc(Nc2nc3c(C4=CCN(C(=O)CCC(F)(F)F)CC4)cccn3n2)cc1 [Example 2-445, N-(4-piperidyl)-4-[[8-[1-(4,4,4-trifluorobutanoyl)-3,6-dihydro-2H-pyridin-4-yl]-[1,2,4]triazolo[1,5-a]pyridin-2-yl]amino]benzamide]
0.4 nM | NCC1CCN(C(=O)c2ccc(Nc3nc4c(C5=CCN(C(=O)CCC(F)(F)F)CC5)cccn4n3)cc2)CC1 [Example 2-446, 1-[4-[2-[4-[4-(aminomethyl)piperidine-1-carbonyl]anilino]-[1,2,4]triazolo[1,5-a]pyridin-8-yl]-3,6-dihydro-2H-pyridin-1-yl]-4,4,4-trifluoro-butan-1-one]
0.9 nM | NCC1CCN(C(=O)c2ccc(Nc3nc4c(C5=CCN(C(=O)CCC(F)(F)F)CC5)cccn4n3)cc2)C1 (stereo not drawn) [Example 2-447, 1-[4-[2-[4-[3-(aminomethyl)pyrrolidine-1-carbonyl]anilino]-[1,2,4]triazolo[1,5-a]pyridin-8-yl]-3,6-dihydro-2H-pyridin-1-yl]-4,4,4-trifluoro-butan-1-one]
1.03 nM | O=C(CCC(F)(F)F)N1CC=C(c2cccn3nc(Nc4ccc(C(=O)N5CCO[C@@H]6CNC[C@H]65)cc4)nc23)CC1 [Example 2-448, 1-[4-[2-[4-[(4aR,7aR)-3,4a,5,6,7,7a-hexahydro-2H-pyrrolo[3,4-b][1,4]oxazine-4-carbonyl]anilino]-[1,2,4]triazolo[1,5-a]pyridin-8-yl]-3,6-dihydro-2H-pyridin-1-yl]-4,4,4-trifluoro-butan-1-one]
1.17 nM | O=C(CCC(F)(F)F)N1CC=C(c2cccn3nc(Nc4ccc(C(=O)N5C[C@H]6CN[C@H]6C5)cc4)nc23)CC1 [Example 2-449, 1-[4-[2-[4-[(1R,5R)-3,6-diazabicyclo[3.2.0]heptane-3-carbonyl]anilino]-[1,2,4]triazolo[1,5-a]pyridin-8-yl]-3,6-dihydro-2H-pyridin-1-yl]-4,4,4-trifluoro-butan-1-one]
